Laboratory results as given in article PMC12136788.
Some of the results follow.

T1: UNK ZnF1-6 (called full-length) (human, UniProt Q9C0B0 30-357)
T1 sequence: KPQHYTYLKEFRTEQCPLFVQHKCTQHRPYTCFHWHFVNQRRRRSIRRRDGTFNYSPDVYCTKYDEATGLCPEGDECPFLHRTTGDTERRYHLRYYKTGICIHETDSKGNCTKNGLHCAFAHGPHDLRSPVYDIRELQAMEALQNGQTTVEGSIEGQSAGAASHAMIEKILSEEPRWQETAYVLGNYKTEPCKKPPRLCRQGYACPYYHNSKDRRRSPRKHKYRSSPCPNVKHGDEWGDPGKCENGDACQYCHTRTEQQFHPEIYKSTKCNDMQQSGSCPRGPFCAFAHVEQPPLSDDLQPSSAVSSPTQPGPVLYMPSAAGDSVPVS

B1: ENSG00000174437:stop:overlap|stop_codon|ENSG00000174437|stop_codon|NA|stop_codon (ssRNA)
RNA: GGGAGUUCUACAGUCCGACGAUCAUGAGACGCUCAAGUUUGUGGCCCGCAACUACCUGGAACCUGUUCUUAGCUCAGAACUUUAGUUGUACUCUGCUUGAGGGGAAGAAGGCUCCUGCUCUGCUGUCAAUACUGGAGUAACCGCAACAGAGGAUUGAGCAUCA
B2: chr7:124031896:124032004:-|CDS|ENSG00000234224|unk|FALSE|unique (ssRNA)
RNA: GGGAGUUCUACAGUCCGACGAUCUACCCGCUCAAUUUUAUGGGCCUCAUCACCCUGAUGUAUUUACCUGGCUGGAUAUUCCUUAGUGUGUACCAGGACCUAAUUUCCAACGUGUUGUGGAGGGUGCAGUACGUACCAGCUAACCAACAGAGGAUUGAGCAUCA
B3: chr4:54297753:54297953:+|3pUTR|ENSG00000134853|msi1|total|mutant (ssRNA)
RNA: GGGAGUUCUACAGUCCGACGAUCUUUUUAUGAUGACAAUCAAAGCCGGCCUGAGAAACACUAUUUGUGACUUUUUAAACGAUCCGUGAUGUCCUUAAAAUGUGGUCUGCCAAUCUGUACAAAAUGGUCCUAUUUUUGUGAAGACAACAGAGGAUUGAGCAUCA
B4: chr16:18841627:18841728:-|CDS|ENSG00000157106|msi1|total|mutant (ssRNA)
RNA: GGGAGUUCUACAGUCCGACGAUCUACAAUUAAUCGCCAAGAAACACCCCGGUUCCAUGCUCGACACUAUUCUGUAACACCACCCGGAACAAGAUCAGGACUAAUCCAGUGGGCCGAUGGAGCCACACCCUUAUUUGGUCUUUACAACAGAGGAUUGAGCAUCA
B5: chr22:21448335:21448436:+|3pUTR|ENSG00000169635|unk|FALSE|bound_elsewhere (ssRNA)
RNA: GGGAGUUCUACAGUCCGACGAUCGCAGUCCUGGCCCCCGGCCACUGUCUCGGGGCCCACCUCUCGCCCCUCAUCUUGGUAAUUAGCCAGCCUCAGAUACUUCUGUGGGCCCUGAAGUGGGCUCUCAAGGUCAGACCAAGGUUGCAACAGAGGAUUGAGCAUCA
B6: chr7:108502517:108502634:-|CDS|ENSG00000135241|unk|total|mutant (ssRNA)
RNA: GGGAGUUCUACAGUCCGACGAUCAUUAUUCCAUAUUUAUUACGACUGAGACAAAUUAAGGAUGAAACUCUUCAGGCUGCAGUCCGAGAAAUUUUGGCCCUAAUUGGCUAUGUGGAUCCAGUGAAAGGGAGAGGAAUCCGAAUUCAACAGAGGAUUGAGCAUCA
B7: chr9:128633378:128633479:+|3pUTR|ENSG00000197694|msi1|total|mutant (ssRNA)
RNA: GGGAGUUCUACAGUCCGACGAUCCUUGCUGCAUGUCCGCUCCUCUGUGUGCUCUCACUUUCCACUGUAACCUUAAGCCUGCUCCGCUUGGAAUAAGACUCCGGAGAAAAUGGUGCUUCACUAACCCGCUUCCGGUCCAGUCACCAACAGAGGAUUGAGCAUCA
B8: chr5:6668475:6668576:+|3pUTR|ENSG00000145545|unk|FALSE|unique (ssRNA)
RNA: GGGAGUUCUACAGUCCGACGAUCAUUUUUUCUAAUUUCAAAUUUACCUCUUUUGGCUAUGUCUUGCCAAGUGUGUAUGAGACUAGACUUUACAACUGUCUUUGAUGGCAUUUUCAGAACAAUAAAUGUCACAAUCCCUUCUAUCAACAGAGGAUUGAGCAUCA
B9: chr4:57031156:57031257:-|3pUTR|ENSG00000163453|msi1|total|mutant (ssRNA)
RNA: GGGAGUUCUACAGUCCGACGAUCAUAACUACAUUACCUGUUCUUGCCUAAUAAGUUUCUUUUAAUCCAAUCCACUAACACUUCCGUUAUAUUCACUGGUUUUACACAGAGAAAUACAAAAUAAAGAUCACACAUCAAGACUAUCAACAGAGGAUUGAGCAUCA
B10: chr9:6012816:6012917:-|CDS|ENSG00000137040|unk|total|mutant (ssRNA)
RNA: GGGAGUUCUACAGUCCGACGAUCGGGAUUGUGCAUAUUUGAUGACAUCACCGAGCACUGCAGUCCAACUUCAUUUAAAUAUGCCGAAUAUUUUCGGUGGCCAAUGCUACUAAAUAUGCGAGAUAACAACCCUGAAGUCAGGCACAACAGAGGAUUGAGCAUCA
B11: ENSG00000136451:be:win_1651|3pUTR|ENSG00000136451|bound_else_gene|NA|bound_elsewhere_windowed (ssRNA)
RNA: GGGAGUUCUACAGUCCGACGAUCAUGAAAUUGGGAGAUUUUAUUACAUUAGUUAAUAAGAGUGUGGUAGCAUUUUUCUCCAAUUUGGCUGGGAUUAUUCAAAGUAGGGUGUGUAUGUAACUUAUCACUGGACCACUUUAGUUUCAACAGAGGAUUGAGCAUCA
B12: chr15:75657416:75657517:+|3pUTR|ENSG00000173548|msi1|FALSE|unique (ssRNA)
RNA: GGGAGUUCUACAGUCCGACGAUCCAUGGGUGCCCCUGGGAAAUUCCCCACUCCUUAGAAGUGGGGCACAGCAGGGGUGAGAAUAGAGUCAGGAGCCCUCGAGGCCAAGGCCUGGGCUGCCGGUCAGUCAGUGAAGGUCAGGCCCAACAGAGGAUUGAGCAUCA
B13: chr15:38484694:38484795:+|3pUTR|ENSG00000171262|unk|FALSE|unique (ssRNA)
RNA: GGGAGUUCUACAGUCCGACGAUCAUUAGAAAUAGUGUUCCAAAUAACAUACUUGAAUAUCAUCUUUGAAGUAAACACCAUGUUAGACUCCCUGGUGAUACCACUCUUGAAUUGGUUAAUAUGUAAGAACAUUGUUUUUUAUUACAACAGAGGAUUGAGCAUCA
B14: chr2:99394746:99394872:+|CDS|ENSG00000158417|unk|total|mutant (ssRNA)
RNA: GGGAGUUCUACAGUCCGACGAUCGAUGUGAGAAUUGAACGAGAUGCACAAGAAAUGGCUGACCGUUCCGGAGUCCGAAUUUUCCGUGCAGAAAUUAUUUAUCAUUUAUUUGAUGCCUUUACAAAAUACCGACAAGACUACAAGCAACAGAGGAUUGAGCAUCA

target: T1, UNK ZnF1-6 (called full-length); assay: nsRBNS (natural sequence RNA bind-n-seq); RBNS binding buffer (assumed for nsRBNS): 25 mM Tris pH 7.5, 150 mM KCl, 3 mM MgCl2, 0.01% Triton X-100, 500 ug/ml BSA, 20 U/ml SUPERase-In, 4 C; UNK is unkempt and MSI1 is Musashi-1; names of the RNAs are library labels; protein concentration not given here; high values mean tight binding

Binder	binding signal
B1	0.281 enrichment R
B2	0.648 enrichment R
B3	0.387 enrichment R
B4	0.64 enrichment R
B5	0.765 enrichment R
B6	0.74 enrichment R
B7	0.609 enrichment R
B8	0.488 enrichment R
B9	0.789 enrichment R
B10	0.387 enrichment R
B11	0.914 enrichment R
B12	0.59 enrichment R
B13	1.09 enrichment R
B14	0.647 enrichment R
